According to the supplement of paper PMC10126150:
Sequences with one replicate were seen in a single cluster, so their values are uncertain.

System: ATP
Assay: switch fluorescence ratio, 500 uM ATP over buffer (Cy3 cluster intensity, sum of 5 cycles each) (fold (ratio)); higher = stronger signal-on switching upon ATP binding; sequences stand for … in TCGTCGGCAGCGTCAGATGTGTATAAGAGACAGTTTTTTTTTTTTTTTTTTTTTTTTT…TC
Details: aptamer strand: ATP DNA aptamer (quencher-CACCTGGGGGAGTATTGCGGAGGAAGG + anchor), 100 nM annealed; ATP concentration: 500 uM; one replicate
Procedure, shortened: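 Exposure to 500 uM ATP lasted 15 min at 22 °C before imaging, and a selection-buffer image was taken beforehand, for Cy3-labelled switching-strand clusters on a modified Illumina MiSeq flow-cell annealed to 100 nM quencher-labelled ATP aptamer. Five buffer/ATP cycles were run with NaOH stripping and re-annealing between them. The fluorescence ratio per cluster is summed target-cycle over summed buffer-cycle Cy3 intensity, averaged per switch-domain sequence. Clusters outside 100-1000 RFU were excluded.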

| Sequence | switch fluorescence ratio |
| --- | --- |
| AATACTTCCT | 1.93 |
| AATAGAAGC | 1.03 |
| AATAGACCGC | 1.1 |
| AATAGAGACA | 0.984 |
| AATAGATTGT | 0.978 |
| AATAGCCTGC | 0.982 |
| AATAGCGGCA | 1.02 |
| AATAGCGGTT | 1 |
| AATAGGACCG | 1.06 |
| AATAGGCGAT | 0.989 |
| AATAGGTTAT | 0.952 |
| AATAGTAGTC | 0.991 |
| AATAGTCATT | 0.982 |
| AATAGTCCTT | 0.949 |
| AATAGTGAG | 0.971 |
| AATAGTTCGA | 1.02 |
| AATATAACCC | 1.03 |
| AATATAATGA | 1 |
| AATATCCAGC | 0.993 |
| AATATCCGGC | 1.01 |
| AATATCGCTA | 1.08 |
| AATATGCGCA | 0.985 |
| AATATGTTT | 1.01 |
| AATATTCCCA | 1.05 |
| AATCAACAGT | 1.01 |

| Sequence | switch fluorescence ratio |
| --- | --- |
| AATCAAGGTG | 1.42 |
| AATCAGCAGC | 1.15 |
| AATCATCTAA | 0.975 |
| AATCATTTCT | 1.06 |
| AATCCAGTCA | 1.01 |
| AATCCATATA | 1.02 |
| AATCCCACGA | 1.04 |
| AATCCGATTC | 1.05 |
| AATCCGGATG | 0.974 |
| AATCCGGCTC | 1.08 |
| AATCCGTGCG | 0.995 |
| AATCCTGGGT | 0.995 |
| AATCCTTACT | 1.45 |
| AATCCTTTAC | 1.22 |
| AATCCTTTCT | 1.27 |
| AATCGAACT | 1.01 |
| AATCGAGCTG | 0.984 |
| AATCGGACTA | 0.94 |
| AATCGGCGAG | 1 |
| AATCGGCTA | 1 |
| AATCGGTAGT | 1.02 |
| AATCTACATT | 1.05 |
| AATCTAGGAG | 1.02 |
| AATCTAGTAA | 1.03 |
| AATCTATGG | 0.903 |

| Sequence | switch fluorescence ratio |
| --- | --- |
| AATCTCCAGC | 1.1 |
| AATCTGGTGG | 0.99 |
| AATGAAAGCA | 1.01 |
| AATGAAGGAG | 0.99 |
| AATGAAGTCA | 1 |
| AATGAGCCTC | 0.982 |
| AATGAGGCTC | 0.994 |
| AATGAGGGGC | 1.01 |
| AATGAGTATC | 1.01 |
| AATGATAGCT | 1 |
| AATGATGCAG | 1.03 |
| AATGATGGAG | 0.955 |
| AATGATGGGA | 1.01 |
| AATGCATACT | 1.14 |
| AATGCCCATA | 1.02 |
| AATGCGTCGG | 1.01 |
| AATGCTCCCG | 1.58 |
| AATGCTCTGG | 1 |
| AATGCTGCGA | 1.02 |
| AATGCTTGCC | 0.996 |
| AATGGAAACT | 0.992 |
| AATGGAGAGC | 1 |
| AATGGAGG | 0.995 |
| AATGGAGTAT | 1.11 |
| AATGGCAGC | 1.01 |

| Sequence | switch fluorescence ratio |
| --- | --- |
| AATGGCTCTG | 1.04 |
| AATGGGATAA | 1.05 |
| AATGGGGCGA | 0.991 |
| AATGGGGCGT | 0.982 |
| AATGGGGCTA | 0.998 |
| AATGGGTCCT | 1.03 |
| AATGGGTCTT | 1.02 |
| AATGGTAGCG | 1.04 |
| AATGGTATCC | 1.02 |
| AATGGTGCT | 1.01 |
| AATGTACCAG | 1.05 |
| AATGTATTTA | 0.998 |
| AATGTCACGA | 1.04 |
| AATGTGACGC | 1.03 |
| AATGTGGTGC | 0.99 |
| AATGTGTAGT | 1.02 |
| AATGTGTGTA | 1.03 |
| AATGTTATAC | 1.01 |
| AATTAAACGC | 1.04 |
| AATTAACAC | 1.04 |
| AATTAATGCG | 1.03 |
| AATTACGCGC | 1.03 |
| AATTAGAAGT | 0.989 |
| AATTCACAGC | 1.05 |
| AATTCATCAG | 0.977 |

| Sequence | switch fluorescence ratio |
| --- | --- |
| AATTCATTGT | 0.966 |
| AATTCCTTTA | 1.02 |
| AATTCGCCCG | 1.02 |
| AATTCGCTTA | 1.14 |
| AATTCGGCTC | 0.983 |
| AATTCTCGTG | 1.03 |
| AATTCTGTAT | 0.995 |
| AATTCTGTCA | 1.01 |
| AATTCTTAGT | 0.986 |
| AATTCTTCCC | 1.1 |
| AATTGAACGA | 0.999 |
| AATTGAAGCC | 1.02 |
| AATTGAGGAG | 0.948 |
| AATTGATGCC | 0.951 |
| AATTGCCGGC | 0.985 |
| AATTGGCATA | 1.02 |
| AATTGGGACT | 0.952 |
| AATTGGGCCC | 1.01 |
| AATTTAACG | 0.996 |
| AATTTATGGT | 0.992 |
| AATTTCCAGA | 0.955 |
| AATTTCGGC | 0.967 |
| AATTTGGAGT | 1.01 |
| AATTTTAAGA | 0.934 |
| AATTTTCTTT | 1.01 |

| Sequence | switch fluorescence ratio |
| --- | --- |
| AATTTTGTAC | 1.01 |
| ACAAAAAAAG | 0.978 |
| ACAAAAGTGG | 1.02 |
| ACAAACGTAT | 1.37 |
| ACAAACGTGA | 1.38 |
| ACAAACTACG | 1.13 |
| ACAAAGCACT | 1.19 |
| ACAAAGGCA | 0.999 |
| ACAAATACAC | 1.07 |
| ACAAATAGTT | 1.02 |
| ACAAATATAC | 1.35 |
| ACAAATGGAT | 1.05 |
| ACAAATGTGC | 1.1 |
| ACAACACGCA | 1.34 |
| ACAACAGTGC | 1.12 |
| ACAACTAATC | 1.06 |
| ACAACTTTAT | 1.01 |
| ACAAGAAGTC | 1.03 |
| ACAAGACACC | 1.42 |
| ACAAGCATTT | 1 |
| ACAAGCTGGA | 1.07 |
| ACAAGGCATC | 1.02 |
| ACAAGGCTGA | 0.936 |
| ACAAGGGTAC | 1.05 |
| ACAAGGTAAA | 1 |

| Sequence | switch fluorescence ratio |
| --- | --- |
| ACAAGTTGTG | 1.01 |
| ACAAGTTTGT | 0.964 |
| ACAATATCGA | 1.1 |
| ACAATCAATA | 1.01 |
| ACAATGCGGC | 1.02 |
| ACAATGTCGT | 1.02 |
| ACAATGTTGC | 0.983 |
| ACAATTACGC | 1.12 |
| ACACAATGCC | 1.13 |
| ACACACCGGT | 1.24 |
| ACACAGAAAT | 1.02 |
| ACACAGACAA | 1.15 |
| ACACAGTAT | 1.07 |
| ACACATGGT | 1.04 |
| ACACCCATAT | 1.11 |
| ACACCCTGAT | 1.13 |
| ACACCCTTAG | 1.14 |
| ACACGACACA | 1.64 |
| ACACGAGGGG | 1.04 |
| ACACGATGTT | 0.988 |
| ACACGCCTTG | 1.03 |
| ACACGGACGA | 1.37 |
| ACACGGCGAG | 1.02 |
| ACACGGCGCG | 0.984 |
| ACACGGGCGG | 0.992 |

| Sequence | switch fluorescence ratio |
| --- | --- |
| ACACGGGGCA | 1.01 |
| ACACGTGTGG | 1.05 |
| ACACTATGTT | 1.04 |
| ACACTATTTT | 1.03 |
| ACACTCTTGT | 1.04 |
| ACACTGCATT | 1.16 |
| ACACTGCGAA | 1.12 |
| ACACTTAAC | 1.13 |
| ACACTTACCG | 1.21 |
| ACAGAAAACC | 1.05 |
| ACAGAAGATC | 1.03 |
| ACAGAATAAA | 1 |
| ACAGATCTGG | 1.02 |
| ACAGATTACC | 1.28 |
| ACAGATTCCA | 1.04 |
| ACAGCATCCC | 1.23 |
| ACAGCATGGC | 1.04 |
| ACAGCCGGGA | 0.998 |
| ACAGCGACCG | 1.11 |
| ACAGCGACTG | 0.998 |
| ACAGCGATTT | 1.04 |
| ACAGCGCGGA | 1.02 |
| ACAGCGGAAG | 1.04 |
| ACAGCGGGTT | 1.03 |
| ACAGCGTACG | 1.02 |
